According to PubChem BioAssay AID1347073 (National Center for Advancing Translational Sciences (NCATS), 2019):
Hit rate of the full screen: of about 45,000 compounds, about 200 (0.44%) were called active. Another 7% or so got no clear call; they are omitted. Calls follow the shape of the dose curve; as a rule, active = well fitted activation curve with a large enough effect; inconclusive = small, poorly fitted or top-dose-only effect; inactive = no such curve, though single readings can be large or run the other way. The list shows a part of the results.

Assay: qHTS of TDP-43 Inhibitors: NCGC Sytravon Library Screen; also: 0% is about no effect; nearly all actives have a fitted effect of over 55% in size
Conditions: yeast TDP-43 toxicity rescue, BacTiter-Glo growth, 24 h; series mostly up to 46.1 µM; growth rescue (activation): at the top concentration
Outline: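 TDP-43-expressing yeast, pregrown in raffinose, seeded at OD600 0.02 in galactose medium with compound for 24 hr at 30 deg C. Growth read by BacTiter-Glo luminescence, so rescue of toxicity appears as activation.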

Compound	growth rescue (activation)
NC(=O)c1nsc(C(=O)N(CCCN2CCOCC2)C(C(=O)NC2CCCCC2)c2ccc(Cl)cc2)c1N (stereo not drawn)	inactive: 2.34%
Cc1ccsc1-c1cc2nc(NCCCN(C)C)n(C)c(=O)c2s1	inactive: 8.8%
C[C@H](NS(=O)(=O)c1ccc(F)cc1)C(=O)OCC(=O)c1c(N)n(C)c(=O)n(C)c1=O	inactive: -2.21%
CCN(CC)c1nc(Oc2ccc(C(=O)NN)cc2)nc(Oc2ccc(C(=O)NN)cc2)n1	inactive: 0.166%
COc1ccc(C(=O)Nc2cc(NC(=O)c3ccco3)ccc2OC)cc1Cl	inactive: -4.57%
Cc1noc(C(=O)Nc2ccc(F)cc2F)c1Cl	inactive: -8.17%
COc1ccccc1OCc1ccc(C(=O)Nc2ccccc2F)cc1	inactive: 5.14%
CSCCC(NC(=O)COc1ccccc1)C(=O)O (stereo not drawn)	inactive: -4.18%
Cc1c(NC(=O)C(=O)/C=C(\O)c2ccc(Br)cc2)c(=O)n(-c2ccccc2)n1C	inactive: -40.2%
CC(=O)Nc1ccc(S(=O)(=O)N2CCC(c3nc4c(nnn4Cc4ccccc4Cl)c(=O)[nH]3)CC2)cc1	inactive: 9.6%
Cc1ccccc1NC(=O)CCCNC(=O)c1ccc(Cl)cc1	inactive: 8.49%
Cc1ccc(C)c(NS(=O)(=O)c2ccc(OCC(=O)NCc3cccnc3)cc2)c1	inactive: 6.89%
CCc1nc(Nc2ccccc2F)c2oc3ccccc3c2n1	inactive: -0.583%
O=C(Cn1nnc2ccccc21)N/N=C/c1ccco1	inactive: 5.9%
CCCNCc1cc(OC)c(OCC(=O)Nc2ccccc2)cc1Br	inactive: 10.6%
CCOc1ncccc1C(=O)OCC(=O)Nc1ccc(C(C)C)cc1	inactive: 12.3%
CCc1cc(Br)ccc1N1C(=O)C2CC=CCC2C1=O (stereo not drawn)	inactive: 12.8%
COc1ccccc1N(CC(=O)NCCSc1ccc(Cl)cc1)S(C)(=O)=O	inactive: -0.269%
COc1cc(/C=C(\C#N)C(=O)NC2CCCCC2C)ccc1OS(=O)(=O)c1ccc(C)cc1 (stereo not drawn)	inactive: -0.588%
Cc1cc(OCC(=O)Nc2ccc3oc(=O)ccc3c2)ccc1Cl	inactive: 9.98%
CC(=O)N1N=C(c2ccccc2)CC1c1cccs1 (stereo not drawn)	inactive: 23.3%
O=C(O)C1C2C=CC(O2)C1C(=O)NC1CCCc2ccccc21 (stereo not drawn)	inactive: 1.63%
O=C(O)CCC(=O)/C=C/c1ccccc1	inactive: 23.3%

Compound	growth rescue (activation)
COc1ccc(C(=O)NCCNc2nc3cc(C)c(C)cc3cc2C)cc1	inactive: -22.4%
NNC(=O)CCCNc1ncc(C(F)(F)F)cc1Cl	inactive: 2.77%
CSc1cccc(CN2CCN(CCC(C)C)C(CCO)C2)c1 (stereo not drawn)	inactive: 11%
Cc1ccc(O)c(CO)n1	inactive: -2.27%
COc1cc(CN2CCCCCC2)cc(OC)c1	inactive: 5.2%
CCCN(C(=O)c1ccc2c(=O)n3c(nc2c1)CCCCC3)c1cccc(Cl)c1	inactive: -3.57%
O=C1CCCc2[nH]c(-c3ccccc3)nc21	inactive: 14.1%
COc1ccccc1C(=O)N1CCCC1(C#N)c1ccccc1 (stereo not drawn)	inactive: -19.1%
COc1ccc([N+](=O)[O-])cc1N(CC1CO1)S(=O)(=O)c1ccc(C)cc1 (stereo not drawn)	inactive: 16.7%
COc1cccc(CN2CCC2(C)C(=O)NCc2cccc(C(F)(F)F)c2)c1OC (stereo not drawn)	inactive: 1.22%
CC(=O)Nc1ccc(-c2ccnc3c2CC(C(=O)NCc2cccc(Cl)c2)O3)cc1 (stereo not drawn)	inactive: 0.306%
COc1cccc(OCC(=O)NNC(=O)Cc2cccs2)c1	inactive: 20.9%
CCN(CC)c1ccc(/C=N/Nc2cccc(C)c2)c(O)c1	inactive: 11.5%
Cc1cccc(NC(=O)CN2C(=O)C(c3ccc(F)cc3)=NC23CCCCCC3)c1C	inactive: 3.52%
CCc1c(C)nc2c(OC)cccc2c1SCCC(=O)O	inactive: 11.8%
CCc1ccccc1NC(=S)N=Nc1c(O)n(C)c2ccc(S(=O)(=O)N3CCOCC3)cc12	inactive: 1.69%
Cc1cc(C)nc(NC(=O)c2c(C(=O)O)noc2C)n1	inactive: -1.63%
CCCSc1ccc2nc(-c3ccccc3)cn2c1	inactive: -24.2%
CC(=O)Oc1ccc2c(=O)oc(-c3ccccc3)nc2c1	inactive: -0.421%
CC(C)(C)c1ccc(OCCn2nc(C(=O)O)c3ccccc3c2=O)cc1	inactive: -8.9%
COc1ccc(N(C(=O)c2snc(C(N)=O)c2N)C(C(=O)NC2CCCC2)c2cc(OC)ccc2OC)c(OC)c1 (stereo not drawn)	inactive: -0.0536%
Cc1ccc(NS(=O)(=O)c2ccc(C(=O)OCC(=O)Nc3cc(C)on3)cc2)cc1	inactive: 15.6%
CCCCOc1ccc(NC(=S)Nc2cc(C)nc(SCCCC)n2)cc1	inactive: 5.15%

Compound	growth rescue (activation)
Cc1cc(C)nc(NS(=O)(=O)c2ccc(NC(=O)C3CC3)cc2)n1	inactive: 2.91%
COc1ccc(C(=O)NC(=O)COC(=O)C2CC2C)cc1 (stereo not drawn)	inactive: 27.4%
Cc1ccc(SCc2nnc(N)s2)cc1	inactive: 13.5%
O=C1CCC(C(=O)Nc2cccc(S(=O)(=O)N3CCOCC3)c2)N1 (stereo not drawn)	inactive: 11.2%
CC(=O)c1cn(CC(=O)Nc2ccccc2C)c2ccccc12	inactive: 18.2%
O=C(NC1CCCC1)C(NS(=O)(=O)c1ccc(Br)s1)c1ccccc1 (stereo not drawn)	inactive: 7.97%
COc1ccc(NC(=O)Cn2c(=O)oc3cc(S(=O)(=O)N4CCCC4)ccc32)cc1OC	inactive: 3.83%
CCCCn1c(N)c(N(CCOC)C(=O)CCc2ccc(OC)cc2)c(=O)[nH]c1=O	inactive: -2.78%
COc1ccc(-c2[nH]ncc2CN(C)CCc2c(C)n[nH]c2C)c(F)c1	inactive: -11.5%
c1ccc(Oc2ccc(-c3ccnc4nc(N5CCOCC5)nn34)cc2)cc1	inactive: 28.2%
O=S(=O)(c1ccccc1)N1CCN(C(=S)Nc2ccc(F)cc2)CC1	inactive: 21.2%
O=C(O)c1nc(NCCc2ccccc2)ncc1Cl	inactive: -11.2%
C[C@@H](C(=O)Nc1nccs1)N1C(=O)C2CC=CCC2C1=O (stereo partly drawn)	inactive: 4.46%
CCN(CC(=O)NC1CCS(=O)(=O)C1)S(=O)(=O)c1ccc(C)cc1C (stereo not drawn)	inactive: 0.496%
COc1ccc(/C(C)=N/N=C(N)N)c(O)c1	inactive: -14.9%
CC(=O)c1cc(F)ccc1OCC(=O)N1CCN(c2ccc(F)cc2)CC1	inactive: 12.4%
O=C(NC1C=CS(=O)(=O)C1)c1ccccc1 (stereo not drawn)	inactive: -7.95%
Fc1ccccc1N1CCN(Cc2cnc(Cl)s2)CC1	inactive: 2.71%
Clc1ccccc1CNCc1ccncc1	inactive: 14.4%
COc1ccc(S(=O)(=O)NCCOc2ccccc2)cc1C	inactive: 21.2%
Cc1ccccc1NS(=O)(=O)c1ccc2c(c1)NC(=O)CO2	inactive: 5.14%
C/C(=N/O)c1ccc2c(c1)OCCOCCOc1cc(/C(C)=N/O)ccc1OCCOCCO2	inactive: 12%
Cc1ccc(C)c(NC(=O)CN(C)C(C)C(=O)N2CCCC2)c1 (stereo not drawn)	inactive: -4.52%

Compound	growth rescue (activation)
COC(=O)c1cc(-c2ccc(OC)cc2F)nc2nc(SC)[nH]c(=O)c12	inactive: -4.83%
CCOc1ccc(NC(=O)CCNC(=O)c2ccco2)cc1	inactive: 3.28%
Cc1cc(C)cc(-c2nnc(SCC(=O)NCC3CCCO3)o2)c1 (stereo not drawn)	inactive: -11.9%
CCOc1ccccc1CN1CCN(C/C=C/c2ccc(OC)cc2)CC1CCO (stereo not drawn)	inactive: -3.15%
COc1ccccc1OCCC(=O)OCC(=O)Nc1ccc2c(c1)OCCO2	inactive: -1.37%
COc1ccc(OC)c(-n2c(-c3cc(-c4ccccc4)n[nH]3)n[nH]c2=S)c1	inactive: 1.27%
Cc1cccc(NC(=O)COC(=O)c2cccs2)c1C	inactive: 5.3%
C/C(=N/Nc1ncc(C(F)(F)F)cc1Cl)c1ccncc1	inactive: 7.45%
CC1CN(c2nnc(NC(=O)c3ccccc3)s2)CC(C)O1 (stereo not drawn)	inactive: 23.8%
c1coc(-c2ccnc3ncnn23)c1	inactive: 9.23%
O=C(NC(=S)N1CCN(c2ccc([N+](=O)[O-])cc2)CC1)c1ccccc1Cl	inactive: 5.35%
CCc1cccc2c(C(=S)N3CCOCC3)c[nH]c12	inactive: 5.19%
CC(C)c1onc(C(=O)N(C)C2CCCCC2)c1[N+](=O)[O-]	inactive: 9.35%
OCc1cnc(SCc2ccccc2)n1Cc1ccccc1	inactive: -1.81%
CCOC(=O)c1cccc(NC(=O)C2=C(C)C(=O)OC23CCCCC3)c1	inactive: 9.83%
O=C1/C(=C\c2ccc(O)c(O)c2)SC(=S)N1Cc1ccccc1	inactive: -94.6%
COC(=O)c1nc2ccccn2c1F	inactive: 5.89%
CN(C)c1ccc(Cl)cc1N	inactive: 0.676%
O=C(Cc1ccccc1)N[C@@H](Cc1ccccc1)c1nc2ccccc2[nH]1	inactive: -19%
CC1CCCC(NC(=O)COC(=O)Cc2cn3ccsc3n2)C1C (stereo not drawn)	inactive: 26.7%
Cc1ccc(-c2csc(NS(=O)(=O)c3cccc(F)c3)n2)o1	inactive: 11.9%
O=C(NCc1ccccc1)C(c1cccnc1)N(C(=O)c1ccccn1)c1ccc(F)cc1 (stereo not drawn)	inactive: 2.68%
CCC1C(=O)C(C)(C)C(=O)OC1c1ccc([N+](=O)[O-])cc1 (stereo not drawn)	inactive: 14%

Compound	growth rescue (activation)
CN(C)c1ccc(C(=S)N2CCCCC2)cc1	inactive: 21.6%
Cc1ccc(C(=O)Nc2nnc(COc3ccccc3)s2)cc1	inactive: -7.47%
CCOP(=O)(OCC)C(NC(=O)c1cccs1)C(F)(F)F (stereo not drawn)	inactive: 1.28%
CC(=O)c1cn(CC(=O)Nc2ccccc2F)c2ccccc12	inactive: 4.81%
Cc1ccc(CNC(=O)CCS(=O)(=O)c2ccc(Br)cc2)cc1	inactive: 6.02%
Cn1ccc(C(=O)OCC(=O)Nc2ccccc2Cl)n1	inactive: -26.1%
CCc1ccc(N(CC(=O)NCc2ccc3c(c2)OCO3)C(=O)c2csnn2)cc1	inactive: -4.61%
CCCCOC(C)n1cc(F)c(=O)[nH]c1=O (stereo not drawn)	inactive: -13.4%
O=C(O)c1nn(CCOc2ccccc2F)c(=O)c2ccccc12	inactive: -9.09%
COc1ccc(C(=O)C2CCN(CC(=O)Nc3ccccc3F)CC2)cc1	inactive: -0.792%
O=C(CNC(=O)c1ccccc1)NCc1ccc(Cl)cc1	inactive: 10.6%
CCCCn1c(N)c(N(CC)C(=O)c2ccc(C#N)cc2)c(=O)[nH]c1=O	inactive: 1.39%
O=C(COc1ccccc1)N/N=C/c1sc(=O)n(Cc2cccc(C(=O)O)c2)c1Cl	inactive: -46.8%
O=C(NCc1ccc(Cl)nc1)c1csc(COCCO)n1	inactive: 5.39%
CCOc1ccc(N2C(=O)CC(N(CCc3ccc(OC)cc3)C(=O)/C=C/C(=O)O)C2=O)cc1 (stereo not drawn)	inactive: 3.1%
CCc1ccc(NC(=O)C(=O)NNC(=O)c2cccs2)cc1	inactive: -23.6%
COc1ccc(-n2nc(C(=O)NCC(=O)N3CCOCC3)c3ccccc3c2=O)cc1Cl	inactive: 12.3%
CCOC(=O)N1CCN(C(=O)CCn2c(=O)[nH]c3ccsc3c2=O)CC1	inactive: 8%
COc1ccc(N(C(=O)C2CCCCC2)S(=O)(=O)c2cccc3cccnc23)cc1	inactive: -6.83%
Nc1nc2ccc(NC(=O)c3ccco3)cc2s1	inactive: 8.7%
O=c1c2c3n(c(=O)nc2[nH]n1-c1ccccc1)CCCCC3	inactive: -12.9%
